Structures are written as SMILES. Hit rate of the full screen: of about 310,000 compounds, about 2,200 (0.71%) showed an effect of 50% or more. The effect is printed as a negative number. This is one part of the list.

In the experiment the target is human ether-à-go-go-related gene (hERG) potassium channel (human, UniProt Q12809). The experiment can be described thus: primary screen, population patch clamp on CHO cells stably expressing hERG.
Chain of human ether-à-go-go-related gene (hERG) potassium channel (Q12809 whole entry, looked up): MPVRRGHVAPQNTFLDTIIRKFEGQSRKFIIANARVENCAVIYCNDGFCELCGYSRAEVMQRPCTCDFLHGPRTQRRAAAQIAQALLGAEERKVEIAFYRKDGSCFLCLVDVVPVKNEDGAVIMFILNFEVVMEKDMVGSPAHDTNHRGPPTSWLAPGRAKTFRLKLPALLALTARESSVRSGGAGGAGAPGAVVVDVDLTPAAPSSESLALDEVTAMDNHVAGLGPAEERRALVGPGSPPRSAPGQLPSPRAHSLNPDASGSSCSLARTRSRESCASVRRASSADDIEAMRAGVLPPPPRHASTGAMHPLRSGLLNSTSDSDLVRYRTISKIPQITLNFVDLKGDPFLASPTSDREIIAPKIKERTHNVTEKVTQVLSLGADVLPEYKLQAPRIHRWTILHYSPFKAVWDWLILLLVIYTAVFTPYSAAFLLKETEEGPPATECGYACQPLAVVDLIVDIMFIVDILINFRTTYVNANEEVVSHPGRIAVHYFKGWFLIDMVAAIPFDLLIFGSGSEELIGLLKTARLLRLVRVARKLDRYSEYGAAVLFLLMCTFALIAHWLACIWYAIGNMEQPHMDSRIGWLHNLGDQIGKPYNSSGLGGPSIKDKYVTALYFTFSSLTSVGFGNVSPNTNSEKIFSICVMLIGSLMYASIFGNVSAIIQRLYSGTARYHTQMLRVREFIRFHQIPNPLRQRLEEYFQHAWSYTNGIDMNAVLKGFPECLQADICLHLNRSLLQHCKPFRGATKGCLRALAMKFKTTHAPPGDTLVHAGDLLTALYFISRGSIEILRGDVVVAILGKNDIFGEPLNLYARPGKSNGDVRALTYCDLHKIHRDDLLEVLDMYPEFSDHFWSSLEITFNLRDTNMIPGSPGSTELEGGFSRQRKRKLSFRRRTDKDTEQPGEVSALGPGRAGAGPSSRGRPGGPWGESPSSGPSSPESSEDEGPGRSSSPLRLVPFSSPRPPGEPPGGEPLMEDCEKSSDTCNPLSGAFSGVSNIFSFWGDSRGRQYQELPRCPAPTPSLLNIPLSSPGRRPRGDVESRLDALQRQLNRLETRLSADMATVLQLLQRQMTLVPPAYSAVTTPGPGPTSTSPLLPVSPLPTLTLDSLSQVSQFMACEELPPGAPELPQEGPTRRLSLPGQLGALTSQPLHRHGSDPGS
`O=C1c2ccccc2C(=O)N1Cc1nc2ccccc2c(=O)n1-c1ccccn1`: the “hERG current change (%, negative = inhibition) at 1uM” value is listed as 8.72%.
`Cc1ccc2c(c1)NC(=O)c1cc([N+](=O)[O-])ccc1O2`: the “hERG current change (%, negative = inhibition) at 1uM” value was 17.1%.
The value for `N#Cc1ccc(Cl)cc1NC(=O)COC(=O)c1ccc(S(=O)(=O)N2CCCC2)cc1` was 6.03%; that for `Cc1cccc(C)c1NC(=O)Cn1nc(C)n2cccc2c1=O` was 5.51%; that for `CCOC(=O)/C=c1\s/c(=C\c2ccc(C)cc2)c(=O)n1CC(=O)NCc1ccco1` was 12.5%.
On to `O=C(NCCc1c[nH]c2ccccc12)C(=O)c1c[nH]c2ccccc12`, for which the “hERG current change (%, negative = inhibition) at 1uM” value turned out to be 7.17%.
Regarding `O=C(O)C1CC=CCC1C(=O)NNS(=O)(=O)c1ccccc1` (stereo not shown), the “hERG current change (%, negative = inhibition) at 1uM” value was determined as 11.6%.
To `COCCn1c(C)cc(C(=O)COC(=O)c2cncc(Br)c2)c1C` belongs -7.42%.
Regarding `O=C(O)c1ccc(Cn2cc(/C=C\[N+](=O)[O-])c3ccccc32)o1`, the “hERG current change (%, negative = inhibition) at 1uM” value is reported as 16.3%.
`COc1cccc(CN2CCCC(CNC(=O)c3ccc(F)cc3)C2)c1OC` (stereo not shown): the “hERG current change (%, negative = inhibition) at 1uM” value is listed as -12.6%.
Regarding `Cc1cc(NC(=O)COC(=O)[C@H](C)NC(=O)c2ccccc2)no1`, the “hERG current change (%, negative = inhibition) at 1uM” value was found to be 3.32%.
As for `COc1ccc(CNC(=O)CCC(=O)N2C[C@H]3C[C@H](C2)c2cccc(=O)n2C3)cc1`, the “hERG current change (%, negative = inhibition) at 1uM” value is 9.09%.
Take `Cn1ncc(Br)c1C(=O)OCC(=O)Nc1nc(-c2ccccc2)cs1`: the “hERG current change (%, negative = inhibition) at 1uM” value turned out to be 11.5%.
Regarding `COC(=O)c1c(NC(=O)COC(=O)[C@@H](NS(=O)(=O)c2ccccc2)C(C)C)sc2c1CCC2`, the “hERG current change (%, negative = inhibition) at 1uM” value turned out to be 0.445%.
Consider `Cc1ccccc1NS(=O)(=O)c1cc(S(C)(=O)=O)ccc1Cl`, for which the “hERG current change (%, negative = inhibition) at 1uM” value is on record as 4.74%.
With `CC(c1ccccc1)n1c(SCC(=O)Nc2ccccc2)n[nH]c1=O` (stereo not shown), the “hERG current change (%, negative = inhibition) at 1uM” value amounted to 9.19%.
On to `O=C(NCCN1CCc2ccccc2C1)C1CC(=O)N(C2CCCC2)C1` (stereo not shown), for which the “hERG current change (%, negative = inhibition) at 1uM” value is 14.8%.
Take `COC(=O)c1ccc(C2NC(=O)c3ccccc3O2)cc1` (stereo not shown): the “hERG current change (%, negative = inhibition) at 1uM” value was found to be 10.5%.
Turning to `CN(C)C(=O)N1CCC(C(=O)NCC2CCCO2)CC1` (stereo not shown), the “hERG current change (%, negative = inhibition) at 1uM” value was -0.682%.
As for `O=C(NCc1ccccc1)c1onc(CSc2ccc(Cl)cc2)c1C(=O)NCC1CC1`, the “hERG current change (%, negative = inhibition) at 1uM” value came out at 7.15%.
Regarding `O=S(=O)(Nc1ccncc1)c1ccc(Cl)c(Cl)c1`, the “hERG current change (%, negative = inhibition) at 1uM” value came to 13.4%.
For `COCCCn1c(SCC(=O)Nc2ccccc2F)nnc1-c1ccoc1C`, the “hERG current change (%, negative = inhibition) at 1uM” value turned out to be 10.3%.
Take `COc1ccccc1C(=O)Nc1ccnn1C1CCN(C)CC1`: the “hERG current change (%, negative = inhibition) at 1uM” value is given as 4.47%.
For `O=C(Cc1ccccc1)Nn1cnc2ccccc21`, the “hERG current change (%, negative = inhibition) at 1uM” value amounted to 11.8%.
For the molecule `CCOc1ccc(/C=C2\SC(N3CCc4ccccc4C3)=NC2=O)cc1`, the “hERG current change (%, negative = inhibition) at 1uM” value amounted to 13.8%.
For the molecule `O=C(NC(=S)NC(=O)c1ccccc1F)c1ccccc1F`, the “hERG current change (%, negative = inhibition) at 1uM” value came out at 0.71%.
On to `CCOC(=O)/C(=N\Nc1ccccc1Cl)N(C)C1CCS(=O)(=O)C1` (stereo not shown), for which the “hERG current change (%, negative = inhibition) at 1uM” value is -0.595%.
On to `CCOC(=O)CCc1c(C)nc(SCC(=O)O)c(C#N)c1C`, for which the “hERG current change (%, negative = inhibition) at 1uM” value was found to be 14.1%.
Regarding `COc1ccc2c(c1)C(=O)N(c1ccccc1C)C(=O)C2(C)C`, the “hERG current change (%, negative = inhibition) at 1uM” value came out at 4.01%.
The value for `CC(=C\c1ccccc1)/C=C1/SC(=S)N(CCC(=O)Nc2ccccn2)C1=O` was 6.53%; that for `CCn1nc(C)cc1-c1nnc(Sc2ncc([N+](=O)[O-])s2)n1C` was 14.3%.
For `COc1ccc(/C=N/NC(=O)COc2cccc3ccccc23)c(C(=O)O)c1OC`, the “hERG current change (%, negative = inhibition) at 1uM” value is reported as 6%.
Take `COc1ccc(CC2(CO)CCN(CC3=Cc4cc(Cl)ccc4OC3)CC2)cc1`: the “hERG current change (%, negative = inhibition) at 1uM” value was 3.16%.
As for `Cc1nn(-c2ccc(N3CCOCC3)nn2)c(C)c1CCC(=O)NCc1ccccc1F`, the “hERG current change (%, negative = inhibition) at 1uM” value was determined as 18.4%.
Take `Cc1cccc(N=CC=C2OC(C)(C)C(C)(C)O2)c1`: the “hERG current change (%, negative = inhibition) at 1uM” value is recorded as 11.2%.
Turning to `COc1cc(SC)ccc1C(=O)OCC(=O)NC(=O)NC(C)C`, the “hERG current change (%, negative = inhibition) at 1uM” value amounted to 8.69%.
For `O=C(COc1ccc2ccccc2c1Br)NCc1ccccn1`, the “hERG current change (%, negative = inhibition) at 1uM” value was 16.3%.
Regarding `CC(C)COc1ccc(C(=S)N2CCCC2)cc1`, the “hERG current change (%, negative = inhibition) at 1uM” value amounted to 4.36%.
In the case of `Cc1cccc(C(=O)NNC(=O)c2ccc(NS(=O)(=O)c3cccs3)cc2)c1C`, the “hERG current change (%, negative = inhibition) at 1uM” value is on record as 6.42%.
As to `C=CCn1c(SCC(=O)NC23CC4CC(CC(C4)C2)C3)nc2cc(C(=O)O)ccc2c1=O`, the “hERG current change (%, negative = inhibition) at 1uM” value is 8.87%.
The value for `CN(c1ccccc1C(=O)Nc1ccc(S(=O)(=O)N2CCCCC2)cc1)S(C)(=O)=O` was 10.9%; that for `O=C(OCc1nnc(-c2ccccc2)o1)c1cc(S(=O)(=O)N2CCOCC2)ccc1F` was 18.9%; that for `O=C1CCN(CCc2ccccc2)CCN1[C@H](CSc1ccccc1)Cc1ccccc1` was -44.6%.
Consider `OCCCNc1cc(-c2ccccc2)nc2cc(-c3ccc(F)cc3)nn12`, for which the “hERG current change (%, negative = inhibition) at 1uM” value turned out to be 13.2%.
The value for `Cc1cccc(C(=O)Nc2ccccc2NC(=O)c2cccc(C)c2)c1` was 14.9%.
`CN(C)C(=O)CN1C(=O)C2CC=C(Cl)CC2C1=O` (stereo not shown): the “hERG current change (%, negative = inhibition) at 1uM” value stood at 5.78%.
`O=C(Cn1ncc2c3ccccc3n(Cc3cccc(Cl)c3)c2c1=O)N1CCC2(CC1)OCCO2`: the “hERG current change (%, negative = inhibition) at 1uM” value was -8.92%.
Regarding `COc1cccc(N2CC(C(=O)Nc3nnc(SCC(=O)N4CCOCC4)s3)CC2=O)c1` (stereo not shown), the “hERG current change (%, negative = inhibition) at 1uM” value is listed as 13.2%.
For the molecule `O=C(Nc1ccncc1)c1ccccc1F`, the “hERG current change (%, negative = inhibition) at 1uM” value is recorded as 17.2%.
The value for `CC1c2ccsc2CCN1S(=O)(=O)c1ccccc1` (stereo not shown) was 8%; that for `COc1cc2c(cc1OC)CN(C(=O)Cn1ccccc1=O)CC2` was -1.68%; that for `COc1cccc(CNC(=O)CCCn2ncn3c(cc4occc43)c2=O)c1` was -10.5%.
As for `C=C(C)C1CC=C(C)/C(=N\NC(=O)CNc2cccc3ccccc23)C1` (stereo not shown), the “hERG current change (%, negative = inhibition) at 1uM” value was 2.43%.
In the case of `COC(=O)c1c(-c2ccc(F)cc2)noc1N`, the “hERG current change (%, negative = inhibition) at 1uM” value is given as -21.5%.
To `Cc1c(C(=O)N2CCCCC2CCN2CCCC2=O)oc2c(F)cccc12` (stereo not shown) belongs 7.69%; to `O=C(NCCc1ccccc1)Nc1ccc2c(c1)OCO2`, 14.8%; to `O=C(c1cnn2c(C(F)(F)F)cc(-c3cccs3)nc12)N1CCCC1`, 9.72%.
As to `CCCn1c(SCc2nc(-c3cccs3)no2)nnc1-c1ccncc1`, the “hERG current change (%, negative = inhibition) at 1uM” value was 4.52%.
Turning to `COc1ccc2[nH]c3c(=O)n(CCCCC(=O)NCCC(C)C)c(=S)[nH]c3c2c1`, the “hERG current change (%, negative = inhibition) at 1uM” value worked out at 8.8%.
For `CC(C)(C)c1ccc(-c2nnc(SC3CCOC3=O)n2Cc2ccccc2)cc1` (stereo not shown), the “hERG current change (%, negative = inhibition) at 1uM” value is -13.4%.
As to `CN(CC(=O)Nc1ccccc1C(F)(F)F)C(=O)Cc1ccccc1F`, the “hERG current change (%, negative = inhibition) at 1uM” value came out at 15.7%.
Regarding `COCCCNC(=S)Nc1ccc(C)cc1`, the “hERG current change (%, negative = inhibition) at 1uM” value was found to be 2.57%.
Regarding `C/C(=C/c1ccccc1)C(=O)N1CCN(c2ccc(F)cc2)CC1`, the “hERG current change (%, negative = inhibition) at 1uM” value is -18.6%.
To `O=C(Nc1ccon1)c1ccccc1Cl` belongs 11%; to `O=C(CCNS(=O)(=O)c1ccc(Cl)cc1)N1CCN(c2ccccn2)CC1`, -0.754%; to `CCC(=O)Oc1ccc(NC(=O)CSCc2ccccc2)cc1`, 8.66%.
Turning to `CCc1ccc(NC(=O)CN(N=Nc2nonc2C)c2nonc2C)cc1`, the “hERG current change (%, negative = inhibition) at 1uM” value is 11.8%.
To `O=C(CSc1nc2[nH]ncc2c(=O)n1-c1ccc(Cl)c(Cl)c1)NCc1ccccc1Cl` belongs 6.16%.
In the case of `On1nnc2cc(C(F)(F)F)ccc21`, the “hERG current change (%, negative = inhibition) at 1uM” value was 8.9%.
Take `O=S(=O)(c1ccc(Br)cc1)n1c(Cc2ccccc2)nc2ccccc21`: the “hERG current change (%, negative = inhibition) at 1uM” value was 5.53%.
Take `CCOC(=O)C1=C(c2ccccc2)N=C2SCC(=O)N2C1c1cccc(OC)c1` (stereo not shown): the “hERG current change (%, negative = inhibition) at 1uM” value is listed as 9.9%.
As to `C=CCn1c(SC(C)C(=O)NCc2ccc3c(c2)OCO3)nc2scc(-c3ccccc3)c2c1=O` (stereo not shown), the “hERG current change (%, negative = inhibition) at 1uM” value is -4.03%.
`O=C(CNC(=O)Cc1ccc(Cl)cc1)NCC(=O)N1CCCCC1`: the “hERG current change (%, negative = inhibition) at 1uM” value worked out at 16.6%.
Take `Fc1cccc(NC(=S)Nc2ccc(Br)cc2)c1`: the “hERG current change (%, negative = inhibition) at 1uM” value is 6.17%.
Turning to `CCC1CN(C(=O)N2CCC(C(=O)NCc3ccc(C)o3)CC2)c2ccccc2O1` (stereo not shown), the “hERG current change (%, negative = inhibition) at 1uM” value is 4.5%.
On to `C=CCN1C(=O)c2ccc(C(=O)N(C)CC(=O)Nc3ccccc3Cl)cc2C1=O`, for which the “hERG current change (%, negative = inhibition) at 1uM” value was 4.92%.
As to `CCCN(CC(=O)Nc1ccc(Cl)cc1Cl)Cc1cc(=O)n2ccsc2n1`, the “hERG current change (%, negative = inhibition) at 1uM” value is listed as -6.86%.
For `CC1CCCCC1NC(=O)C1CCN(S(=O)(=O)N2CCC3(CC2)OCCO3)CC1` (stereo not shown), the “hERG current change (%, negative = inhibition) at 1uM” value amounted to 8.62%.
In the case of `COc1ccccc1NC(=S)NCCSc1ccc(C)cc1`, the “hERG current change (%, negative = inhibition) at 1uM” value is on record as -8.23%.
To `Cl.O=C(OCCN1CCOCC1)C(c1ccccc1)c1ccccc1` belongs 12.1%; to `O=C(Nc1ccc(N2CCN(Cc3ccccc3)CC2)cc1)c1ccco1`, 7.73%.
As for `COc1ccc(-c2cc(C(=O)Nc3cc(OC)c(OC)c(OC)c3)no2)cc1`, the “hERG current change (%, negative = inhibition) at 1uM” value is on record as 21.4%.
As to `CCn1cc(CN2N=C(C)CC2c2ccccc2)c(C)n1` (stereo not shown), the “hERG current change (%, negative = inhibition) at 1uM” value is 13.2%.
As to `CCOC(=O)N1CCN(c2c(F)cc3[nH]c(=S)[nH]c3c2Br)CC1`, the “hERG current change (%, negative = inhibition) at 1uM” value is recorded as -7%.
`COc1ccc(CCC(=O)Nc2ccc(C)c([N+](=O)[O-])c2)cc1`: the “hERG current change (%, negative = inhibition) at 1uM” value is reported as 14.5%.
To `COc1ccc(NS(=O)(=O)c2c(C)[nH]c(=O)[nH]c2=O)c(OC)c1` belongs 24.1%; to `COc1ccc([C@H]2/C=C\CN(Cc3ccc(N(C)C)cc3)[C@@H](C)C(=O)N2Cc2ccc(F)cc2)cc1`, -3.39%.
As for `O=C(N/N=C/c1cc2cc3c(cc2nc1Cl)OCCO3)c1ccccc1O`, the “hERG current change (%, negative = inhibition) at 1uM” value is given as 8.11%.

These data come from paper PMC4336329 (PLoS ONE, 2015).
